At least one read-out could not be matched to a standard name with certainty.
Test: Photochromic properties: UV-visible absorption of THF solutions before and after exposure to a UV source at 365 nm
Type: physicochemical
Conditions: 5 mg in 50 ml of THF, at 21 °C
Description: The photochromic properties of said compounds (1) to (6) and (C1) to (C5) were evaluated.
Said compounds were dissolved, at the rate of 5 mg in 50 ml of THF, and the UV-visible absorptions (optical path of 1 cm) is then measured before and after exposure to a UV source at 365 nm. The observation of the tints and the intensities developed is done by placing the solutions in the sun or before a solar simulator.

First: COc1cc2c3c(c4c(c2cc1OC)CCc1ccccc1-4)OC(c1ccccc1)(c1ccc(N(C)C)c(C)c1)C=C3 (centres unmarked) [(1)]
Second: COc1cc2c3c(c4c(c2cc1OC)CCc1ccccc1-4)OC(c1ccccc1)(c1ccc(N(C)C)cc1)C=C3 (centres unmarked) [(C1), reference compound]
The “T1/2: discoloration time corresponding to 50% decrease of absorption at the λvis” value of the first is higher: 36 s for the first, 12 s for the second.

Going from `COc1cc2c3c(c4c(c2cc1OC)CCc1ccccc1-4)OC(c1ccccc1)(c1ccc(N(C)C)c(-c2ccccc2)c1)C=C3` (centres unmarked) [(2)] to `COc1ccc2c3c(c4c(c2c1)OC(c1ccccc1)(c1ccc(N(C)C)c(-c2ccccc2)c1)C=C4)CCc1ccccc1-3` (centres unmarked) [(4)], the “T1/2: discoloration time corresponding to 50% decrease of absorption at the λvis” value rises from 19 s to 61 s.

Compared with `COc1ccc2c3c(c4c(c2c1)OC(c1ccccc1)(c1ccc(N(C)C)c(C)c1)C=C4)CCc1ccccc1-3` (centres unmarked) [(3)], `COc1ccc2c3c(c4c(c2c1)OC(c1ccccc1)(c1ccc(N(C)C)cc1)C=C4)CCc1ccccc1-3` (centres unmarked) [(C3), reference compound] is lower in “T1/2: discoloration time corresponding to 50% decrease of absorption at the λvis” value: 69 s for the first, 20 s for the second.

First: COc1ccc(C2(c3ccc(N(C)C)c(C)c3)C=Cc3c4c(c5cc6c(cc5c3O2)OCC6)-c2ccccc2CC4)cc1 (centres unmarked) [(5)]
Second: COc1ccc(C2(c3ccc(N(C)C)c(Br)c3)C=Cc3c4c(c5cc6c(cc5c3O2)OCC6)-c2ccccc2CC4)cc1 (centres unmarked) [(6)]
The “T1/2: discoloration time corresponding to 50% decrease of absorption at the λvis” value of the first is lower: 37 s for the first, 43 s for the second.

Going from `COc1ccc(C2(c3ccccc3)C=Cc3c(c4c(c5cc(OC)c(OC)cc35)CCc3ccccc3-4)O2)cc1` (centres unmarked) [(C2), reference compound] to `COc1cc2c3c(c4c(c2cc1OC)CCc1ccccc1-4)OC(c1ccccc1)(c1ccc(NC(C)=O)cc1)C=C3` (centres unmarked) [(C5), reference compound], the “T1/2: discoloration time corresponding to 50% decrease of absorption at the λvis” value rises from 30 s to 45 s.

With `COc1ccc(C2(c3ccccc3)C=Cc3c4c(c5ccc(OC)cc5c3O2)-c2ccccc2CC4)cc1` (centres unmarked) [(C4), reference compound] the “T1/2: discoloration time corresponding to 50% decrease of absorption at the λvis” value was 55 s.
